# In article PMC12820563, “FoxP3 forms a head-to-head dimer in vivo and stabilizes its multimerization on adjacent microsatellites”:
# Some of the results follow.
# Biological target: T1, MBP-FoxP1dN (Mus musculus, UniProt P58462 326-579)
# T1 sequence: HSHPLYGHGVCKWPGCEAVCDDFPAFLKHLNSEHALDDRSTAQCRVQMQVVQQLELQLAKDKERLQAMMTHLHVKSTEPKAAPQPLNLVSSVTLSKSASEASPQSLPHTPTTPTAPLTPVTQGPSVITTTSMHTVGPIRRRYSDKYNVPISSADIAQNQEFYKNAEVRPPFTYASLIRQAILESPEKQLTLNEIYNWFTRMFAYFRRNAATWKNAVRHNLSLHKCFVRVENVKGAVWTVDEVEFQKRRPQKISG
# Assay: PD-seq (MBP pull-down with sequencing); 20 mM Tris-HCl pH 7.5, 100 mM NaCl, 1.5 mM MgCl2, 0.4 uM protein, 0.1 uM dsDNA library, 30 min, room temperature, amylose pull-down; high values mean tight binding
# Conditions: protein: recombinant; tags: His6-MBP; chain copies: 2; dsDNA, one strand shown
# In short: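 E. coli-expressed mouse FoxP3 or FoxP1 fragment, N-terminus removed and tagged with His6-MBP, was used at 0.4 µM against 0.1 µM of a Klenow-filled degenerate double-stranded DNA library. After 30 min at room temperature in Tris pH 7.5 buffer with NaCl and MgCl2, complexes were pulled down on amylose resin and washed three times. Binding is pull-down over input reads-per-million enrichment from pooled replicates of the proteinase K-released, PCR-barcoded, Illumina-sequenced DNA.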
row,Sequence,binding signal
1,GATGATTGTTCTCCCAGCTGATGAATTGTGGTACTCGAGTAAACAAATTTTCCTAATCTTTCTGTTCAAGCGCCATCTAC,1.09 RPM ratio (pull-down/input)
2,GATGATTGTTCTCCCAGCTGATGAATTGCCCGAATCGAGTAAACAAATTTTCCTAATCTTTCTGTTCAAGCGCCATCTAC,0.939 RPM ratio (pull-down/input)
3,GATGATTGTTCTCCCAGCTGATGAATTACCATACTCGAGTAAACAAATTTTCCTAATCTTTCTGTTCAAGCGCCATCTAC,0.954 RPM ratio (pull-down/input)
4,GATGATTGTTCTCCCAGCTGATGAATTCGAGACGTCGAGTAAACAAATTTTCCTAATCTTTCTGTTCAAGCGCCATCTAC,0.78 RPM ratio (pull-down/input)
5,GATGATTGTTCTCCCAGCTGATGAATTATGGTATTCGAGTAAACAAATTTTCCTAATCTTTCTGTTCAAGCGCCATCTAC,1.1 RPM ratio (pull-down/input)
6,GATGATTGTTCTCCCAGCTGATGAATTGAGTGAATCGAGTAAACAAATTTTCCTAATCTTTCTGTTCAAGCGCCATCTAC,0.904 RPM ratio (pull-down/input)
7,GATGATTGTTCTCCCAGCTGATGAATTTGTCACTTCGAGTAAACAAATTTTCCTAATCTTTCTGTTCAAGCGCCATCTAC,1.14 RPM ratio (pull-down/input)
8,GATGATTGTTCTCCCAGCTGATGAATTCCTGGTGTCGAGTAAACAAATTTTCCTAATCTTTCTGTTCAAGCGCCATCTAC,0.832 RPM ratio (pull-down/input)
9,GATGATTGTTCTCCCAGCTGATGAATTAACGCTGTCGAGTAAACAAATTTTCCTAATCTTTCTGTTCAAGCGCCATCTAC,0.97 RPM ratio (pull-down/input)
10,GATGATTGTTCTCCCAGCTGATGAATTGACGAAGTCGAGTAAACAAATTTTCCTAATCTTTCTGTTCAAGCGCCATCTAC,0.97 RPM ratio (pull-down/input)
11,GATGATTGTTCTCCCAGCTGATGAATTCCCCGCCTCGAGTAAACAAATTTTCCTAATCTTTCTGTTCAAGCGCCATCTAC,0.856 RPM ratio (pull-down/input)
12,GATGATTGTTCTCCCAGCTGATGAATTCTTTAAGTCGAGTAAACAAATTTTCCTAATCTTTCTGTTCAAGCGCCATCTAC,0.837 RPM ratio (pull-down/input)
13,GATGATTGTTCTCCCAGCTGATGAATTTAACGCTTCGAGTAAACAAATTTTCCTAATCTTTCTGTTCAAGCGCCATCTAC,0.91 RPM ratio (pull-down/input)
14,GATGATTGTTCTCCCAGCTGATGAATTCCAGTAGTCGAGTAAACAAATTTTCCTAATCTTTCTGTTCAAGCGCCATCTAC,0.79 RPM ratio (pull-down/input)
15,GATGATTGTTCTCCCAGCTGATGAATTTATGCAGTCGAGTAAACAAATTTTCCTAATCTTTCTGTTCAAGCGCCATCTAC,1.11 RPM ratio (pull-down/input)
16,GATGATTGTTCTCCCAGCTGATGAATTTCAACCTTCGAGTAAACAAATTTTCCTAATCTTTCTGTTCAAGCGCCATCTAC,0.82 RPM ratio (pull-down/input)
17,GATGATTGTTCTCCCAGCTGATGAATTGTTCGTGTCGAGTAAACAAATTTTCCTAATCTTTCTGTTCAAGCGCCATCTAC,1.07 RPM ratio (pull-down/input)
18,GATGATTGTTCTCCCAGCTGATGAATTGGTATGTTCGAGTAAACAAATTTTCCTAATCTTTCTGTTCAAGCGCCATCTAC,1.27 RPM ratio (pull-down/input)
19,GATGATTGTTCTCCCAGCTGATGAATTGAACCCCTCGAGTAAACAAATTTTCCTAATCTTTCTGTTCAAGCGCCATCTAC,0.779 RPM ratio (pull-down/input)
20,GATGATTGTTCTCCCAGCTGATGAATTTCACGAATCGAGTAAACAAATTTTCCTAATCTTTCTGTTCAAGCGCCATCTAC,0.931 RPM ratio (pull-down/input)
21,GATGATTGTTCTCCCAGCTGATGAATTTTTAGTGTCGAGTAAACAAATTTTCCTAATCTTTCTGTTCAAGCGCCATCTAC,1.14 RPM ratio (pull-down/input)

row,Sequence,binding signal
1,GATGATTGTTCTCCCAGCTGATGAATTATTCGCGTCGAGTAAACAAATTTTCCTAATCTTTCTGTTCAAGCGCCATCTAC,1.05 RPM ratio (pull-down/input)
2,GATGATTGTTCTCCCAGCTGATGAATTGGACACATCGAGTAAACAAATTTTCCTAATCTTTCTGTTCAAGCGCCATCTAC,1.03 RPM ratio (pull-down/input)
3,GATGATTGTTCTCCCAGCTGATGAATTAGAAACATCGAGTAAACAAATTTTCCTAATCTTTCTGTTCAAGCGCCATCTAC,1.26 RPM ratio (pull-down/input)
4,GATGATTGTTCTCCCAGCTGATGAATTAGCGGTCTCGAGTAAACAAATTTTCCTAATCTTTCTGTTCAAGCGCCATCTAC,0.852 RPM ratio (pull-down/input)
5,GATGATTGTTCTCCCAGCTGATGAATTCATGGCTTCGAGTAAACAAATTTTCCTAATCTTTCTGTTCAAGCGCCATCTAC,0.829 RPM ratio (pull-down/input)
6,GATGATTGTTCTCCCAGCTGATGAATTCCGTTAATCGAGTAAACAAATTTTCCTAATCTTTCTGTTCAAGCGCCATCTAC,0.898 RPM ratio (pull-down/input)
7,GATGATTGTTCTCCCAGCTGATGAATTAGGTTAATCGAGTAAACAAATTTTCCTAATCTTTCTGTTCAAGCGCCATCTAC,0.976 RPM ratio (pull-down/input)
8,GATGATTGTTCTCCCAGCTGATGAATTGGCACTATCGAGTAAACAAATTTTCCTAATCTTTCTGTTCAAGCGCCATCTAC,0.929 RPM ratio (pull-down/input)
9,GATGATTGTTCTCCCAGCTGATGAATTCCGGCCATCGAGTAAACAAATTTTCCTAATCTTTCTGTTCAAGCGCCATCTAC,0.801 RPM ratio (pull-down/input)
10,GATGATTGTTCTCCCAGCTGATGAATTTTTCATGTCGAGTAAACAAATTTTCCTAATCTTTCTGTTCAAGCGCCATCTAC,0.926 RPM ratio (pull-down/input)
11,GATGATTGTTCTCCCAGCTGATGAATTTCATACGTCGAGTAAACAAATTTTCCTAATCTTTCTGTTCAAGCGCCATCTAC,0.937 RPM ratio (pull-down/input)
12,GATGATTGTTCTCCCAGCTGATGAATTTCCGGTCTCGAGTAAACAAATTTTCCTAATCTTTCTGTTCAAGCGCCATCTAC,0.754 RPM ratio (pull-down/input)
13,GATGATTGTTCTCCCAGCTGATGAATTCGTCATGTCGAGTAAACAAATTTTCCTAATCTTTCTGTTCAAGCGCCATCTAC,0.903 RPM ratio (pull-down/input)
14,GATGATTGTTCTCCCAGCTGATGAATTCTGTGCGTCGAGTAAACAAATTTTCCTAATCTTTCTGTTCAAGCGCCATCTAC,0.934 RPM ratio (pull-down/input)
15,GATGATTGTTCTCCCAGCTGATGAATTCGTAACCTCGAGTAAACAAATTTTCCTAATCTTTCTGTTCAAGCGCCATCTAC,0.882 RPM ratio (pull-down/input)
16,GATGATTGTTCTCCCAGCTGATGAATTGTACTTGTCGAGTAAACAAATTTTCCTAATCTTTCTGTTCAAGCGCCATCTAC,1.06 RPM ratio (pull-down/input)
17,GATGATTGTTCTCCCAGCTGATGAATTCATAGAATCGAGTAAACAAATTTTCCTAATCTTTCTGTTCAAGCGCCATCTAC,0.955 RPM ratio (pull-down/input)
18,GATGATTGTTCTCCCAGCTGATGAATTACATCAGTCGAGTAAACAAATTTTCCTAATCTTTCTGTTCAAGCGCCATCTAC,1.17 RPM ratio (pull-down/input)
19,GATGATTGTTCTCCCAGCTGATGAATTTCGATGATCGAGTAAACAAATTTTCCTAATCTTTCTGTTCAAGCGCCATCTAC,0.907 RPM ratio (pull-down/input)
20,GATGATTGTTCTCCCAGCTGATGAATTTAGTTGTTCGAGTAAACAAATTTTCCTAATCTTTCTGTTCAAGCGCCATCTAC,1.71 RPM ratio (pull-down/input)
21,GATGATTGTTCTCCCAGCTGATGAATTTAACCATTCGAGTAAACAAATTTTCCTAATCTTTCTGTTCAAGCGCCATCTAC,0.939 RPM ratio (pull-down/input)

row,Sequence,binding signal
1,GATGATTGTTCTCCCAGCTGATGAATTAATGACTTCGAGTAAACAAATTTTCCTAATCTTTCTGTTCAAGCGCCATCTAC,0.904 RPM ratio (pull-down/input)
2,GATGATTGTTCTCCCAGCTGATGAATTCGAAAGATCGAGTAAACAAATTTTCCTAATCTTTCTGTTCAAGCGCCATCTAC,0.94 RPM ratio (pull-down/input)
3,GATGATTGTTCTCCCAGCTGATGAATTACTTTCATCGAGTAAACAAATTTTCCTAATCTTTCTGTTCAAGCGCCATCTAC,1.02 RPM ratio (pull-down/input)
4,GATGATTGTTCTCCCAGCTGATGAATTATTGACATCGAGTAAACAAATTTTCCTAATCTTTCTGTTCAAGCGCCATCTAC,2 RPM ratio (pull-down/input)
5,GATGATTGTTCTCCCAGCTGATGAATTACGATTATCGAGTAAACAAATTTTCCTAATCTTTCTGTTCAAGCGCCATCTAC,1.22 RPM ratio (pull-down/input)
6,GATGATTGTTCTCCCAGCTGATGAATTTGATGTTTCGAGTAAACAAATTTTCCTAATCTTTCTGTTCAAGCGCCATCTAC,1.16 RPM ratio (pull-down/input)
7,GATGATTGTTCTCCCAGCTGATGAATTTCACTTTTCGAGTAAACAAATTTTCCTAATCTTTCTGTTCAAGCGCCATCTAC,0.926 RPM ratio (pull-down/input)
8,GATGATTGTTCTCCCAGCTGATGAATTTTCAACTTCGAGTAAACAAATTTTCCTAATCTTTCTGTTCAAGCGCCATCTAC,0.943 RPM ratio (pull-down/input)
9,GATGATTGTTCTCCCAGCTGATGAATTCGAAGGTTCGAGTAAACAAATTTTCCTAATCTTTCTGTTCAAGCGCCATCTAC,0.81 RPM ratio (pull-down/input)
10,GATGATTGTTCTCCCAGCTGATGAATTGCTTGGCTCGAGTAAACAAATTTTCCTAATCTTTCTGTTCAAGCGCCATCTAC,0.933 RPM ratio (pull-down/input)
11,GATGATTGTTCTCCCAGCTGATGAATTGTTCGACTCGAGTAAACAAATTTTCCTAATCTTTCTGTTCAAGCGCCATCTAC,1.01 RPM ratio (pull-down/input)
12,GATGATTGTTCTCCCAGCTGATGAATTCCAGCAGTCGAGTAAACAAATTTTCCTAATCTTTCTGTTCAAGCGCCATCTAC,0.739 RPM ratio (pull-down/input)
13,GATGATTGTTCTCCCAGCTGATGAATTGCCGGGGTCGAGTAAACAAATTTTCCTAATCTTTCTGTTCAAGCGCCATCTAC,0.827 RPM ratio (pull-down/input)
14,GATGATTGTTCTCCCAGCTGATGAATTTGGACAGTCGAGTAAACAAATTTTCCTAATCTTTCTGTTCAAGCGCCATCTAC,0.81 RPM ratio (pull-down/input)
15,GATGATTGTTCTCCCAGCTGATGAATTCGGATCTTCGAGTAAACAAATTTTCCTAATCTTTCTGTTCAAGCGCCATCTAC,0.788 RPM ratio (pull-down/input)
16,GATGATTGTTCTCCCAGCTGATGAATTGATTCCCTCGAGTAAACAAATTTTCCTAATCTTTCTGTTCAAGCGCCATCTAC,0.993 RPM ratio (pull-down/input)
17,GATGATTGTTCTCCCAGCTGATGAATTCTAACAGTCGAGTAAACAAATTTTCCTAATCTTTCTGTTCAAGCGCCATCTAC,0.932 RPM ratio (pull-down/input)
18,GATGATTGTTCTCCCAGCTGATGAATTAGTCCGGTCGAGTAAACAAATTTTCCTAATCTTTCTGTTCAAGCGCCATCTAC,0.847 RPM ratio (pull-down/input)
19,GATGATTGTTCTCCCAGCTGATGAATTCTACCGGTCGAGTAAACAAATTTTCCTAATCTTTCTGTTCAAGCGCCATCTAC,0.708 RPM ratio (pull-down/input)
20,GATGATTGTTCTCCCAGCTGATGAATTCAGTTAATCGAGTAAACAAATTTTCCTAATCTTTCTGTTCAAGCGCCATCTAC,1.06 RPM ratio (pull-down/input)
21,GATGATTGTTCTCCCAGCTGATGAATTCAATTAATCGAGTAAACAAATTTTCCTAATCTTTCTGTTCAAGCGCCATCTAC,1.06 RPM ratio (pull-down/input)
